Experimental data taken from the supplement of paper PMC12217912.
The other results are listed elsewhere or left out. The full chains were built here from the parent and the listed change. Values near 0.05 are background.

B1: TEV protease; numbered along this chain (parent)
chain: MGESLFKGPRDYNPISSSICHLTNESDGHTTSLYGIGFGPFIITNKHLFRRNNGTLVVQSLHGVFKVKDTTTLQQHLVDGRDMIIIRMPKDFPPFPQKLKFREPQREERICLVTTNFQTKSMSSMVSDTSCTFPSGDGIFWKHWIQTKDGQCGSPLVSTRDGFIVGIHSASNFTNTNNYFTSVPKNFMELLTNQEAQQWVSGWRLNADSVLWGGHKVFMVKPEEPFQPVKEATQL

Variants of: B1
Experiment: raw area under fraction-flipped curve 0-4 h after induction (AUC4h, not background-subtracted), DNA-recorder readout of cleavage of the substrate (dimensionless); higher = more cleavage of the substrate by the protease variant
Details: temperature: 34 °C; time window: 0-4 h after rhamnose induction
Experimental: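 In vivo DNA recorder in E. coli TOP10(DE3) ΔrhaA at 34 °C. Each TEVp single-site mutant (parent TEVp 0) is paired with a single-site variant of the 7-mer TEVs (canonical ENLYFQ|S). The substrate sits between flexible linkers in a Bxb1-sfGFP-TEVs-SsrA fusion, so cleavage stabilises Bxb1 and speeds flipping of a recombination array, read by NGS. The value is the raw area under the fraction-flipped curve over 0-4 h after rhamnose induction (AUC4h), with ≥20 reads per time point. It is not background-subtracted; inactive controls average about 0.047.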
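Also: Bxb1 expression induced with 0.2% (w/v) L-rhamnose at OD600 near 0.5, cultures sampled hourly, flipped fraction per protease–substrate barcode pair counted by paired-end Illumina sequencing.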

| Variant | area with substrate CNLYFQS | area with substrate GNLYFQS | area with substrate HNLYFQS | area with substrate KNLYFQS | area with substrate MNLYFQS | area with substrate NNLYFQS | area with substrate SNLYFQS | area with substrate TNLYFQS | area with substrate WNLYFQS | area with substrate YNLYFQS | area with substrate INLYFQS | area with substrate LNLYFQS | area with substrate RNLYFQS | area with substrate FNLYFQS | area with substrate PNLYFQS | area with substrate QNLYFQS | area with substrate VNLYFQS | area with substrate DNLYFQS |
| --- | --- | --- | --- | --- | --- | --- | --- | --- | --- | --- | --- | --- | --- | --- | --- | --- | --- | --- |
| G136P | 0.0694 | 0.0442 | 0.0828 | 0.0557 | 0.0669 | 0.0377 | 0.0602 | 0.0599 | 0.0533 | 0.063 |  |  |  |  |  |  |  |  |
| G153N | 0.0631 | 0.0505 |  |  |  | 0.0389 | 0.0597 |  | 0.0526 | 0.0449 | 0.06 | 0.0473 | 0.0482 |  |  |  |  |  |
| G153Y | 0.0433 |  | 0.0368 |  |  |  |  | 0.0487 | 0.0478 | 0.0432 |  | 0.0638 |  | 0.0604 | 0.0406 | 0.0515 |  |  |
| V113C | 0.0982 |  | 0.0626 |  | 0.0672 | 0.076 | 0.0664 | 0.0682 | 0.0646 | 0.06 | 0.0581 | 0.0572 | 0.0681 | 0.0551 | 0.068 | 0.0765 | 0.0442 |  |
| V113D | 0.052 | 0.0574 | 0.0556 | 0.0534 | 0.0495 | 0.0537 | 0.0532 | 0.0478 | 0.0539 | 0.0455 | 0.0548 | 0.0451 |  | 0.0333 |  |  | 0.0446 |  |
| V113L | 0.0668 | 0.0714 | 0.0703 |  | 0.0722 |  | 0.0648 | 0.0661 | 0.0697 | 0.0517 | 0.0641 |  |  | 0.0682 | 0.0604 |  | 0.0671 |  |
| V113N | 0.0506 | 0.0555 | 0.0494 | 0.0662 | 0.0606 | 0.0658 |  | 0.0498 | 0.0542 | 0.0677 |  | 0.0558 |  |  | 0.0541 |  |  |  |
| V113H | 0.0778 |  |  | 0.0594 | 0.0454 |  | 0.067 | 0.0734 | 0.0619 | 0.0403 | 0.0986 | 0.0663 |  |  | 0.06 |  |  |  |
| G138Q | 0.0488 |  | 0.064 | 0.0601 |  |  | 0.0728 |  |  |  |  |  |  |  | 0.0934 |  | 0.0459 | 0.206 |
| D128H | 0.0818 |  | 0.0752 |  | 0.0676 | 0.0594 | 0.0816 | 0.0752 | 0.0655 | 0.07 |  | 0.076 | 0.0604 | 0.0857 | 0.0901 | 0.0598 |  |  |
| S123T | 0.0744 | 0.0581 |  | 0.0658 | 0.0738 |  | 0.0582 | 0.0506 |  | 0.0701 |  | 0.0622 |  | 0.0404 | 0.065 | 0.0673 | 0.0603 |  |
| P155E | 0.0524 |  | 0.0653 |  |  |  | 0.0562 | 0.049 | 0.0544 | 0.0515 | 0.0212 | 0.0545 |  | 0.0392 | 0.0592 | 0.07 |  |  |
| P155F | 0.0514 | 0.0612 | 0.055 | 0.0595 |  |  | 0.06 | 0.0511 |  | 0.0626 | 0.0583 | 0.0756 | 0.051 | 0.0583 | 0.0559 |  |  |  |
| P155M | 0.0529 | 0.0615 | 0.0574 | 0.0504 |  | 0.0706 |  | 0.0694 | 0.0631 | 0.0484 | 0.0571 | 0.0722 | 0.0396 | 0.0558 |  |  |  |  |
| S121A | 0.0433 | 0.0646 | 0.0651 | 0.0723 | 0.0646 |  | 0.0762 | 0.0697 | 0.0491 |  | 0.0651 | 0.0662 | 0.0597 |  | 0.0573 |  |  |  |
| S121E | 0.0606 | 0.0676 |  | 0.0552 |  |  |  |  |  | 0.0523 | 0.0579 | 0.0692 |  |  | 0.075 |  |  |  |

| Variant | area with substrate CNLYFQS | area with substrate GNLYFQS | area with substrate HNLYFQS | area with substrate KNLYFQS | area with substrate MNLYFQS | area with substrate NNLYFQS | area with substrate SNLYFQS | area with substrate TNLYFQS | area with substrate WNLYFQS | area with substrate YNLYFQS | area with substrate INLYFQS | area with substrate LNLYFQS | area with substrate RNLYFQS | area with substrate FNLYFQS | area with substrate PNLYFQS | area with substrate QNLYFQS | area with substrate VNLYFQS | area with substrate DNLYFQS |
| --- | --- | --- | --- | --- | --- | --- | --- | --- | --- | --- | --- | --- | --- | --- | --- | --- | --- | --- |
| S121Y | 0.0595 | 0.0802 | 0.0557 |  |  | 0.0683 | 0.0693 | 0.0621 |  |  | 0.074 |  |  |  | 0.0808 |  |  |  |
| T132S | 0.0736 | 0.0958 | 0.0633 | 0.0711 |  |  |  | 0.0749 | 0.0591 | 0.0601 |  | 0.0731 |  |  |  |  | 0.0523 |  |
| T132Y | 0.062 | 0.0555 |  | 0.0597 | 0.0728 |  | 0.0648 |  | 0.0495 |  | 0.0446 |  |  | 0.0518 | 0.0607 |  |  |  |
| T132G | 0.0623 |  | 0.0574 |  | 0.0719 | 0.0752 | 0.0568 | 0.064 | 0.0556 | 0.0559 | 0.0541 |  |  |  | 0.07 |  |  |  |
| T132F | 0.0394 |  | 0.048 |  | 0.06 | 0.0501 | 0.0825 | 0.048 | 0.0578 |  | 0.0672 | 0.0089 |  | 0.0461 | 0.0542 |  | 0.0548 |  |
| L156K | 0.0378 | 0.0451 | 0.0475 | 0.0418 |  |  | 0.057 | 0.0604 | 0.052 |  | 0.0456 |  |  |  | 0.0559 | 0.0361 |  |  |
| C111K | 0.0759 | 0.0693 | 0.059 |  |  |  | 0.0654 | 0.0732 | 0.0706 | 0.0622 |  |  | 0.036 | 0.0735 | 0.0712 |  |  |  |
| W144Q | 0.0614 | 0.0663 | 0.053 | 0.064 | 0.0257 |  | 0.0625 | 0.0677 | 0.0595 |  | 0.065 | 0.0602 |  |  | 0.0803 |  |  |  |
| W144T | 0.0787 |  |  | 0.0683 | 0.059 |  |  | 0.0777 | 0.0642 | 0.0626 |  |  |  |  | 0.0676 |  |  |  |
| P134E | 0.0544 | 0.0643 |  | 0.0634 | 0.0691 |  | 0.0699 | 0.0593 | 0.0536 | 0.0558 | 0.0356 |  |  | 0.0716 | 0.0619 |  |  |  |
| P134L | 0.0401 | 0.063 | 0.0631 |  | 0.0677 | 0.052 | 0.0486 |  |  | 0.0619 |  | 0.0516 |  | 0.0395 | 0.0707 |  |  |  |
| S135I | 0.0664 | 0.0504 | 0.0623 | 0.0541 | 0.0598 | 0.059 | 0.0586 | 0.0572 | 0.082 | 0.0598 |  | 0.0684 |  | 0.0484 |  | 0.0539 | 0.0602 |  |
| S135D | 0.0782 |  | 0.0671 |  | 0.0783 |  | 0.0692 |  | 0.0681 | 0.0336 | 0.0589 | 0.0784 |  | 0.0621 | 0.0652 |  |  |  |
| V157R | 0.0658 |  | 0.0387 | 0.0544 | 0.0518 | 0.0417 | 0.0771 | 0.0573 | 0.0568 | 0.0557 | 0.0365 | 0.0538 | 0.0519 | 0.0533 | 0.062 |  | 0.0611 |  |
| V157N | 0.064 | 0.0504 | 0.0463 | 0.0582 | 0.0536 | 0.0521 |  | 0.0498 | 0.0478 | 0.0605 | 0.0451 | 0.0587 | 0.0563 | 0.0491 | 0.0556 |  |  |  |
